This is an account of results in the RNAGym collection of RNA variant scans (doi:10.1093/nar/gkz1192).

First the molecules themselves.
B1: CPEB3 Ribozyme (parent)
chain: UAACAGGGGGCCACAGCAGAAGCGUUCACGUCGCAGCCCCUGUCAGAUUCUGGUGAAUCUGCGAAUUCUGCUGUAUAUCUC

Read counts are not given, so values of variants with three or more changes are uncertain.

In the data set the parent is B1. Description: self-cleavage, relative activity (ratio to wild type); higher = more cleavage; in vitro, sequencing. An outline of the steps:
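Relative activity compares each variant's cleaved/total read fraction with that of the unmutated ribozyme. To get these fractions, barcoded CPEB3 ribozyme libraries from rounds of error-prone PCR were transcribed with T7 RNA polymerase for 5 hours at 37°C and then given 15 min of DNase I treatment before EDTA was added. The RNAs were reverse transcribed with template switching and sequenced on Illumina, and DNA sequencing linked barcodes to variants. A minimum of 5 reads applied, and three batches were averaged.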
With G22A C37U U41C A45U U69A, the self-cleavage stood at 0.15.

For the variant A21G U49A U69C, the self-cleavage was found to be 0.24.

Regarding A21U C29U U76C, the self-cleavage was 0.08. Next, A21U A65G U76A: 0.19; G24A U26C A28G U60A: 0.08. To A21G U43C U48A G63A A65U U69C C71G belongs 0.04. To G22U A56G U60C belongs 0.15; to A21G G46U U72A, 0.1; to A21G U25C G46U, 0.05. On to A21G U49A A57G U72A U78C, for which the self-cleavage stood at 0.08. Next, G24A A35U A47G A65C: 0.11; C23A A35G U72A: 0.07; A21G G63U U67C: 0.19. As for C23A U31G C62G, the self-cleavage is 0.08. Next, G24A A56G U58A U66C U74A: 0.13; A21U U26A U51C U78C: 0.19; C23A U54C A64U U76A: 0.15.

Consider A21G U26A U43C, for which the self-cleavage was found to be 0.35.

On to C23G G30A U72A, for which the self-cleavage worked out at 0.04. Next, A21G U25C U67C U69C U74C: 0; A21U U26C A35U A56G: 0.05. Next, A21U U54C A65G A75G: 0.08. To C23U A35G U48C U51C C79U belongs 0.26; to A21G U43C A65G A77U, 0.07. Consider G24A U48C A56U, for which the self-cleavage amounted to 0.14. In the case of C23U A47G U58A U60C, the self-cleavage stood at 0.31.

Take A21G U31G U41C U60C: the self-cleavage turned out to be 0.08.

A21G U25A G42U U67C: the self-cleavage came to 0.1. Next, A21U U58C A64U U72G: 0.12; C23G U58C C59A U66C G70A U78G: 0.03.

C23A A35U U41A: the self-cleavage stood at 0.18.

With C23A A35U U41C, the self-cleavage stood at 0.08.

C23U U25C C40U U72A: the self-cleavage stood at 0.11. To C23U A35G U69C belongs 0.17. To A21G U49C U76G belongs 0.18. Turning to A21G U54C A56U U60C, the self-cleavage was 0.12. Consider C23G U25C U41C U48C U69C, for which the self-cleavage stood at 0.04. Regarding A21G U41C U60A, the self-cleavage came to 0.23.

With A21U C62U A65G U66C, the self-cleavage was 0.06. Consider A21G U41C A45G, for which the self-cleavage amounted to 0.4. In the case of A21G U41C A45U, the self-cleavage came to 0.44. To C23U U25C U58C G63A A64G belongs 0.12.

As for A21G U41C U58C A65C, the self-cleavage stood at 0.11. In the case of C23U U72C A75U, the self-cleavage was 0.48. In the case of A21G U25C U31G, the self-cleavage amounted to 0.49. As to C23U U25C C37A C62A A75G, the self-cleavage was found to be 0.04. For the variant A21G U25C U54C A64G, the self-cleavage came out at 0.14.

For G22C A35G C71G, the self-cleavage was 0.05. Consider A21G U25C U48C, for which the self-cleavage is 0.23. On to A21U U26A U41C A65G U80A, for which the self-cleavage stood at 0.04. For the variant C23A A28G U54G A64G U80C, the self-cleavage came to 0.15.

As for C23A C27A C39A, the self-cleavage was determined as 0.16.

As for A21G U54C C71G, the self-cleavage stood at 0.18. As to A21U U25C U80A, the self-cleavage stood at 0.3. Regarding C23A U58C U69A, the self-cleavage was 0.13. Consider A21G U58C U78A, for which the self-cleavage worked out at 0.34. Regarding G24A A28G A45G U69C A75U A77G, the self-cleavage came out at 0.11. To G24A U41A U58C U66C belongs 0.05. To A21G U41A U51G G63A belongs 0.11; to C23G C27U C34A A47C G70U U80C, 0.06.

With C23U U41A U66C, the self-cleavage came to 0.18. To A21G U48C U74C belongs 0.58; to A21G U58C G63U, 0.12; to G24A G30U U58C, 0.07. In the case of A21G U60G U72A, the self-cleavage stood at 0.11. Regarding G22C U26A U43C, the self-cleavage is 0.08. Next, A21G U26C U31A U43C U60C: 0.07; A21G U31A U49G U58C A64G U67C U72C: 0.03; A21U C44A U67A U72A: 0.11.

For G22A U26C U41A, the self-cleavage is 0.11. Next, A21U A28G U48C A64G: 0.06; G22U U25C A28U U41C U51A A57U U69C: 0.05. On to G24A U49C U54C A64G U66A, for which the self-cleavage was found to be 0.22. A21G U25A U26A U51A A65U A75G: the self-cleavage was 0.05. To A21U U25C G30A U31C U72C A77U U80C belongs 0.04. Next, A21G U41C U58A G73A U80C: 0.38; A21G U26C U72C: 0.37; A21G U26C U72A: 0.22. As to A21U U41G G70A, the self-cleavage stood at 0.18. Next, A21G U51A A64C: 0.14; A21G U41G A57G: 0.44; A21G U26A U31C U43C A45G U74G: 0.07. Take C23U U54C A56U A64G A65C U80C: the self-cleavage stood at 0.11.
